# A collection of fitness landscapes (doi:10.1016/j.celrep.2020.107928)
# Whole data set: some 81,000 sequences, median “one-hybrid fitness for binding parS DNA” near -0.17, cut for the highest 2% near 0.51. The list shows a part of the results.
# B1: Caulobacter ParB omega fusion; a variant is named by its letters at X, in order, B8GW30 (parent)
# chain: MESVVVGEPGMSEGRRGLGRGLSALLGEVDAAPAQAPGEQLGGSREAPIEILQRNPDQPRRTFREEDLEDLSNSIREKGVLQPILVRPSPDTAGEYQIVAGERAWRAAQRAGLKTVPIMVRELDDLAVLEIGIIENVQRADLNVLEEALSYKVLMEKFERTQENIAQTIGKSXSHVANXMRLLXLPDEVQSYLVSGELTAXHARAIAAAADPVALAKQIIEGGLSVRETEALARKAPNLSAGKSKGGRPPRVKDTDTQALESDLSSVLGLDVSIDHRGSTGTLTITYATLEQLDDLCNRLTRGI
# Variants of: B1
# Experiment: one-hybrid fitness for binding parS DNA (scaled: cognate 1, non-cognate 0); higher = stronger binding
# Conditions: with parS DNA site
# Summary of the method: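 Fitness is the rescaled log change in variant-to-wild-type read ratio, measured by Illumina sequencing of plasmids before and after bacterial one-hybrid selection. The scale puts cognate at 1 and non-cognate at 0. Selection of Caulobacter ParB libraries, four specificity codons randomised, took place in E. coli USO with a HIS3 reporter, site 19 bp from the promoter, over 48 hours at 37°C on M9-minus-histidine with 0.1 mM IPTG and 5 mM 3-AT.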
row,Variant,one-hybrid fitness for binding parS DNA
1,QCDT,≤ 0.2
2,QRRF,≤ 0.2
3,NSDT,≤ 0.2
4,TNCK,≤ 0.2
5,LSNQ,≤ 0.2
6,LSTE,≤ 0.2
7,SEAR,≤ 0.2
8,AYSI,≤ 0.2
9,ACKL,≤ 0.2
10,GRCF,≤ 0.2
11,NCYS,≤ 0.2
12,VNYT,≤ 0.2
13,GCWG,≤ 0.2
14,LCRW,≤ 0.2
15,PFDN,≤ 0.2
16,SHLE,≤ 0.2
17,VDCS,≤ 0.2
18,RLKI,≤ 0.2
19,GRMY,≤ 0.2
20,VLQV,≤ 0.2
21,HQMS,≤ 0.2
22,WFQG,≤ 0.2
23,LHSS,≤ 0.2
24,LGPG,≤ 0.2
25,RLKA,0.796

row,Variant,one-hybrid fitness for binding parS DNA
1,RFAI,≤ 0.2
2,MPSG,≤ 0.2
3,RERH,≤ 0.2
4,HLGC,≤ 0.2
5,RLMM,0.338
6,ENLA,≤ 0.2
7,VCCT,≤ 0.2
8,KKYD,≤ 0.2
9,HWHG,≤ 0.2
10,TSAS,≤ 0.2
11,CLMC,≤ 0.2
12,VCML,≤ 0.2
13,QRPR,≤ 0.2
14,NMAF,≤ 0.2
15,MNKG,≤ 0.2
16,SAFW,≤ 0.2
17,WDKP,≤ 0.2
18,NVDD,≤ 0.2
19,VEQG,≤ 0.2
20,NLHV,≤ 0.2
21,TQDV,≤ 0.2
22,LECT,≤ 0.2
23,ANNS,≤ 0.2
24,VSRC,≤ 0.2
25,MAGR,≤ 0.2

row,Variant,one-hybrid fitness for binding parS DNA
1,DNSL,≤ 0.2
2,AHNK,≤ 0.2
3,EVQC,≤ 0.2
4,RFCK,≤ 0.2
5,RGFC,0.454
6,GDLV,≤ 0.2
7,YIHF,≤ 0.2
8,RKHW,≤ 0.2
9,TNRT,≤ 0.2
10,ELEM,≤ 0.2
11,QAHD,≤ 0.2
12,PDNT,≤ 0.2
13,GGLT,≤ 0.2
14,LSAP,≤ 0.2
15,VCHT,≤ 0.2
16,ARSL,≤ 0.2
17,RLNS,0.932
18,PNYT,≤ 0.2
19,HAVV,≤ 0.2
20,SLMV,≤ 0.2
21,PSCE,≤ 0.2
22,PNLW,≤ 0.2
23,RGDM,≤ 0.2
24,EFFS,≤ 0.2
25,SMIS,≤ 0.2

row,Variant,one-hybrid fitness for binding parS DNA
1,VMHH,≤ 0.2
2,QAWD,≤ 0.2
3,RDHV,≤ 0.2
4,SSWS,≤ 0.2
5,NHSP,≤ 0.2
6,SCNF,≤ 0.2
7,SKSF,≤ 0.2
8,AGES,≤ 0.2
9,PFQY,≤ 0.2
10,VEPC,≤ 0.2
11,WCQR,≤ 0.2
12,RGCL,≤ 0.2
13,YMIG,≤ 0.2
14,DNPR,≤ 0.2
15,RSAH,0.226
16,KKVH,≤ 0.2
17,TPTH,≤ 0.2
18,PFHT,≤ 0.2
19,TPGF,≤ 0.2
20,QHWR,≤ 0.2
21,WMHR,≤ 0.2
22,PYMD,≤ 0.2
